{"source": "the supplement of paper PMC3334620", "note": "The full ranking holds about 33,000 sequences; the median of “E-score (-0.5 to 0.5)” is about -0.013, and the highest 2% start at about 0.3. Some of the results follow.", "data": [{"molecular_target": "T1, Msn1 (UniProt P22148)", "T1 sequence": "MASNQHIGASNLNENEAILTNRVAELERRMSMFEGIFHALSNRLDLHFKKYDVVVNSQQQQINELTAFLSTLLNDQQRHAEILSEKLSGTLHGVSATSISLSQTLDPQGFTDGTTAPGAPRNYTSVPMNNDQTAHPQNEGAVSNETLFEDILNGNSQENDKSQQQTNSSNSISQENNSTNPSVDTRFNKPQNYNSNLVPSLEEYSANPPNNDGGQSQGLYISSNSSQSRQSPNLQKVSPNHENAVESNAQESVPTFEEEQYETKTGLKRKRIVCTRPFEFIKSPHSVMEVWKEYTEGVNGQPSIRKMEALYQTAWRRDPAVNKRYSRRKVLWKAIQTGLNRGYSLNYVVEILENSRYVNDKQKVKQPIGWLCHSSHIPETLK", "experiment": "PBM E-score (8-mer binding enrichment) (E-score (-0.5 to 0.5)); higher = stronger / more preferred TF binding; most listed sequences are background and not binding sites", "conditions": "protein concentration: 200 nM; construct: GST-full length", "method_in_brief": "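Yeast transcription factors, full-length or as DNA-binding domains, were expressed with a GST tag using PURExpress in vitro transcription/translation. At about 100-200 nM they were applied to universal all-10-mer Agilent arrays, double-stranded by primer extension on fresh or once-stripped slides. Fluorescent anti-GST detected bound protein, and masliner normalised the scans. E-scores for ungapped eight-base words, pooled with reverse complements, came from the Universal PBM Analysis Suite.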", "values": [{"sequence": "AGACTAGA", "PBM E-score": -0.148}, {"sequence": "CCTTGCCC", "PBM E-score": -0.154}, {"sequence": "AAAACTTA", "PBM E-score": 0.123}, {"sequence": "AGCCAAGG", "PBM E-score": -0.024}, {"sequence": "ATTTACAA", "PBM E-score": 0.147}, {"sequence": "TCCGTCAA", "PBM E-score": 0.078}, {"sequence": "ATAACTTG", "PBM E-score": 0.098}, {"sequence": "AATTTCAG", "PBM E-score": 0.127}, {"sequence": "AATAACCG", "PBM E-score": -0.159}, {"sequence": "GAAGCGGC", "PBM E-score": -0.0496}, {"sequence": "AACTAGCC", "PBM E-score": -0.0783}, {"sequence": "GACGTGAA", "PBM E-score": 0.143}, {"sequence": "AGGGGGGC", "PBM E-score": -0.452}, {"sequence": "ACGGCCCC", "PBM E-score": -0.312}, {"sequence": "ACAGCAAG", "PBM E-score": 0.0631}, {"sequence": "CTAGTCGC", "PBM E-score": -0.121}, {"sequence": "CAGGAACA", "PBM E-score": 0.112}, {"sequence": "CTAGACAA", "PBM E-score": 0.305}, {"sequence": "ACGTGATA", "PBM E-score": -0.0675}, {"sequence": "AAAAAAGA", "PBM E-score": 0.122}, {"sequence": "CTACTCGA", "PBM E-score": -0.0361}, {"sequence": "TCACCGAA", "PBM E-score": 0.0587}, {"sequence": "AATTAGCA", "PBM E-score": 0.0626}, {"sequence": "ACATAAAC", "PBM E-score": 0.282}, {"sequence": "AGCGGACA", "PBM E-score": 0.359}, {"sequence": "AATAAACC", "PBM E-score": -0.0182}, {"sequence": "ATTAACGC", "PBM E-score": 0.00097}, {"sequence": "TCGCCAGA", "PBM E-score": -0.0726}, {"sequence": "ACCGAAAG", "PBM E-score": 0.0147}, {"sequence": "AGACAGCA", "PBM E-score": 0.0324}, {"sequence": "CATACTCG", "PBM E-score": 0.0382}, {"sequence": "TACTACAA", "PBM E-score": 0.268}, {"sequence": "AAGTGTTA", "PBM E-score": -0.025}, {"sequence": "ATGGGCCA", "PBM E-score": -0.153}, {"sequence": "ACACGAGA", "PBM E-score": 0.117}, {"sequence": "CAGTCCAA", "PBM E-score": -0.176}, {"sequence": "AAATGGTT", "PBM E-score": 0.158}, {"sequence": "AATATAAC", "PBM E-score": 0.122}, {"sequence": "CGCCCGAC", "PBM E-score": 0.0493}, {"sequence": "GTAGGATA", "PBM E-score": -0.0803}, {"sequence": "ACGAGAAG", "PBM E-score": -0.15}, {"sequence": "CTAGTACC", "PBM E-score": -0.0261}, {"sequence": "ATGAAGTC", "PBM E-score": -0.0197}, {"sequence": "TAAGCATA", "PBM E-score": 0.021}, {"sequence": "AATCCACG", "PBM E-score": 0.0424}, {"sequence": "TGTTCTAA", "PBM E-score": 0.259}, {"sequence": "AACGGGAC", "PBM E-score": 0.182}, {"sequence": "CACCCCGA", "PBM E-score": -0.105}, {"sequence": "ATCCTCGC", "PBM E-score": -0.292}, {"sequence": "CGCGCGCA", "PBM E-score": 0.131}, {"sequence": "GCACGTCC", "PBM E-score": 0.181}, {"sequence": "ACCCGGGC", "PBM E-score": -0.0373}, {"sequence": "ATAAGCAG", "PBM E-score": -0.0568}, {"sequence": "CCTAGAGG", "PBM E-score": -0.0777}, {"sequence": "AAGTTACT", "PBM E-score": 0.0189}, {"sequence": "GTTGACCA", "PBM E-score": -0.122}, {"sequence": "CGTACGGA", "PBM E-score": 0.138}, {"sequence": "ACTATACC", "PBM E-score": 0.0929}, {"sequence": "TCAATACA", "PBM E-score": 0.117}, {"sequence": "GTGTGCTA", "PBM E-score": -0.135}, {"sequence": "ATAACACC", "PBM E-score": 0.152}, {"sequence": "AATGAAAG", "PBM E-score": -0.0355}, {"sequence": "AAGAGTCA", "PBM E-score": 0.128}, {"sequence": "AGCGAGTG", "PBM E-score": -0.0483}, {"sequence": "AGCCGAGC", "PBM E-score": -0.00764}, {"sequence": "CATGCGTC", "PBM E-score": 0.0631}, {"sequence": "ATATCTCG", "PBM E-score": 0.0554}, {"sequence": "CGGTATGA", "PBM E-score": 0.105}, {"sequence": "GAGCGTCA", "PBM E-score": -0.094}, {"sequence": "GAGCGAAC", "PBM E-score": -0.14}, {"sequence": "GGTGTCTA", "PBM E-score": 0.0447}, {"sequence": "AGGGTAGC", "PBM E-score": -0.267}, {"sequence": "GGGTGAAA", "PBM E-score": 0.107}, {"sequence": "AGATTAAG", "PBM E-score": 0.0729}, {"sequence": "AGTCGACG", "PBM E-score": 0.176}, {"sequence": "AGAGCACC", "PBM E-score": -0.348}, {"sequence": "ATTAACTC", "PBM E-score": 0.234}, {"sequence": "GCCGTGAA", "PBM E-score": 0.0234}, {"sequence": "TGGCGCAA", "PBM E-score": -0.198}, {"sequence": "ATCAATCA", "PBM E-score": 0.0687}, {"sequence": "CGGCTGAA", "PBM E-score": -0.0794}, {"sequence": "CACATTGG", "PBM E-score": -0.0202}, {"sequence": "GCAAGACC", "PBM E-score": -0.124}, {"sequence": "CCTTCGGC", "PBM E-score": -0.157}, {"sequence": "TAGGTTGA", "PBM E-score": 0.0241}, {"sequence": "ATCTGGAG", "PBM E-score": -0.145}]}]}
